# Data from the RNAGym collection of RNA variant scans (doi:10.7554/elife.90254).
# Read counts are not given, so values of variants with three or more changes are uncertain.
# B1: LINE1-mini (parent)
# chain: GGCAGAGCUCAACACAGCGUGGCAAAGUGGCUGUGGCUAGACUGCC
# Variants of: B1
# Test: self-cleavage, relative activity (ratio to wild type); higher = more cleavage; in vitro, sequencing; the parent is a self-cleaving ribozyme
row,Variant,self-cleavage
1,G2U A12U A16G C18A G40A,0.03
2,G2U A12U A24C G35A,0.01
3,G2U A12U A25U U38C,0
4,G2U A12U C15A C31U C37G,0.01
5,G2U A12U C46A,0
6,G2U A12U C46U,0.01
7,G2U A12U U28C,0
8,G2U A14C A16G G19U G21A C23A U28G,0.02
9,G2U A14C A24G U28G G29A,0.03
10,G2U A14C A39G,0.02
11,G2U A14C G22U,0.04
12,G2U A14C G40U,0.02
13,G2U A14G A26C U34C,0.01
14,G2U A14G A41U C42U C46A,0
15,G2U A14G G17C U34C,0.02
16,G2U A14G G30U G33C G40U G44A,0.01
17,G2U A14U A16C G21U U28G C45A,0
18,G2U A14U A26G C37A,0.04
19,G2U A14U C18A G36A,0.02
20,G2U A14U G21U,0.02
21,G2U A14U U20A A25U G30U C42G,0.08

row,Variant,self-cleavage
1,G2U A16C G29C,0.07
2,G2U A16C G40A,0.02
3,G2U A16C U34C C42A U43G C46U,0.01
4,G2U A16G A25C A39C,0.01
5,G2U A16G C18G C45U,0.02
6,G2U A16G C23U,0.01
7,G2U A16G G19A A26U U32A C37U C45A,0
8,G2U A16G G21C A26U U32G,0.01
9,G2U A16G G22U U32A G36U,0
10,G2U A16G G36A C42A,0.05
11,G2U A16G U20C,0.05
12,G2U A16U A39U G40U C45G,0.11
13,G2U A16U C23G,0
14,G2U A16U C37U,0
15,G2U A16U C37U G44U,0.01
16,G2U A16U G17C,0.02
17,G2U A16U G21U G29A G33C G40U,0
18,G2U A16U G30U,0.01
19,G2U A16U U20A,0.03
20,G2U A24C A25U G40U C46U,0.02
21,G2U A24C G27C,0.08

row,Variant,self-cleavage
1,G2U A24G G27A G30A C37G A41C U43G,0.01
2,G2U A24U A26C U32G,0.05
3,G2U A24U G33A G35C C42G,0.01
4,G2U A24U G40U,0.2
5,G2U A24U U34A G35U,0.01
6,G2U A24U U34C C37G,0.02
7,G2U A25C A39G,0
8,G2U A25C G33U G40A,0.02
9,G2U A25C G36U,0.01
10,G2U A25C U34A,0.01
11,G2U A25G G29A,0.02
12,G2U A25U G30A,0.04
13,G2U A26C G29A C31U,0.03
14,G2U A26C G33U,0
15,G2U A26C G44U,0.02
16,G2U A26C U43A C45A,0.02
17,G2U A26G C37A,0.01
18,G2U A26G G30A U32G,0.02
19,G2U A26G G35A,0.06
20,G2U A26G G40C,0.03
21,G2U A26U C37A G40C,0.02

row,Variant,self-cleavage
1,G2U A26U G30A C31A,0.02
2,G2U A26U U34G,0.06
3,G2U A39C G44C,0
4,G2U A39C U43A,0.02
5,G2U A39U U43G,0.02
6,G2U A41C G44A,0.04
7,G2U C3A A4C C23U A24G,0.07
8,G2U C3A A4C G27U G30U U32C C42A C45A,0.04
9,G2U C3A A6U C42U,0.14
10,G2U C3A A39G,0.29
11,G2U C3A C8A A11C G22U A25C C45U,0.01
12,G2U C3A C23A G27U,0.48
13,G2U C3A C42A C45A C46A,0.19
14,G2U C3A G5A C15U,0.77
15,G2U C3A G7C U34A A41G,0.03
16,G2U C3A G7U,0.18
17,G2U C3A G17C C31A,0.49
18,G2U C3A G17C C31U,0.1
19,G2U C3A G17C U38G G40U,0.13
20,G2U C3A G17U G35A C45G,0.05
